Results published in the supplement of paper PMC3334620.
Whole data set: some 33,000 sequences, median “E-score (-0.5 to 0.5)” near -0.013, cut for the highest 2% near 0.3. The list shows a part of the results.

Target: T1, Msn1 (UniProt P22148)
T1 sequence: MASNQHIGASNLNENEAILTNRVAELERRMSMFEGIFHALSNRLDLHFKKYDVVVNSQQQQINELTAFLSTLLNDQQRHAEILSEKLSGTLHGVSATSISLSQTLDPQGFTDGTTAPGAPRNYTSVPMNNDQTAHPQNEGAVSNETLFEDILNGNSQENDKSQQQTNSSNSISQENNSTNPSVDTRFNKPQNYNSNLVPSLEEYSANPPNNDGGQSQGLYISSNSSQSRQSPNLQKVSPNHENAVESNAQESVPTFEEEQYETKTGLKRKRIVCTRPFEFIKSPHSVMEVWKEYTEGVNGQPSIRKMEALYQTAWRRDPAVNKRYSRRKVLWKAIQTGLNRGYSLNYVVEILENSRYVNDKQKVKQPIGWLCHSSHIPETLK
Assay: PBM E-score (8-mer binding enrichment) (E-score (-0.5 to 0.5)); higher = stronger / more preferred TF binding; most listed sequences are background and not binding sites
Conditions: protein concentration: 200 nM; construct: GST-full length
Procedure, shortened: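 The E-score, a modified Wilcoxon-Mann-Whitney statistic, was computed by the Universal PBM Analysis Suite for every ungapped eight-base word pooled with its reverse complement. Scans behind it were normalised with masliner after bound GST-tagged yeast transcription factors were detected with fluorescent anti-GST. The proteins, at about 100-200 nM, had been applied to universal all-10-mer Agilent arrays made double-stranded by primer extension.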

Going from ACCGCACG to CTTTGCAC, the “PBM E-score” value rises from -0.0708 to 0.0381.

First: ACATAGCG
Second: GCATCCTA
The “PBM E-score” value of the first is higher: 0.0839 for the first, -0.107 for the second.

Compared with CAGGAGAC, ATCAACTG is higher in “PBM E-score” value: -0.17 for the first, 0.0832 for the second.

Going from ACAGCCTA to GCCGTTAA, the “PBM E-score” value falls from 0.142 to 0.0997.

Compared with AAGAGGTC, CCTAAAAA is higher in “PBM E-score” value: -0.191 for the first, 0.0396 for the second.

First: TGGCAAAA
Second: CCAGTTAC
The “PBM E-score” value of the first is higher: 0.174 for the first, -0.166 for the second.

Compared with ATCCCAGG, ACGAAGTG is higher in “PBM E-score” value: -0.0875 for the first, 0.119 for the second.

Going from ACAATTAT to ATTTGTGG, the “PBM E-score” value falls from 0.273 to 0.207.

Going from ACCAGACT to GCGTTCAA, the “PBM E-score” value falls from -0.00359 to -0.131.

Compared with CTTAAATC, TCAAGTAA is higher in “PBM E-score” value: 0.0754 for the first, 0.239 for the second.

Compared with ATAAGCCG, CTCGTTCA is higher in “PBM E-score” value: 0.00553 for the first, 0.148 for the second.

First: AAATCCCA
Second: CCAACCGC
The “PBM E-score” value of the first is higher: 0.0405 for the first, 0.0322 for the second.

Compared with TCCGCCCA, GGTGGCTA is lower in “PBM E-score” value: -0.0499 for the first, -0.176 for the second.

Compared with TAGGTATA, GAATGGAC is higher in “PBM E-score” value: 0.0777 for the first, 0.217 for the second.

Going from CCGTATTA to AAATATGC, the “PBM E-score” value falls from 0.0851 to -0.0194.

Compared with GTTGCAGA, TTCTACAA is higher in “PBM E-score” value: -0.107 for the first, 0.0874 for the second.

Compared with TCCCTTAA, AAGATTAT is higher in “PBM E-score” value: -0.00555 for the first, 0.114 for the second.

Compared with GATTATTA, AATTTAGA is higher in “PBM E-score” value: -0.0075 for the first, 0.11 for the second.

Going from TAATACAA to CCGGGTCC, the “PBM E-score” value falls from 0.145 to 0.0052.

First: CAATCGCA
Second: ACGACTCA
The “PBM E-score” value of the first is higher: 0.00062 for the first, -0.0661 for the second.

Compared with CGCCCACG, CCGCTGTA is higher in “PBM E-score” value: -0.23 for the first, 0.00153 for the second.

Going from GACGCATC to GTCACTTA, the “PBM E-score” value rises from 0.129 to 0.218.

First: TTAATTAA
Second: ATGGGCCG
The “PBM E-score” value of the first is higher: -0.0655 for the first, -0.222 for the second.

Compared with CATAGGCA, CGCCTAGA is higher in “PBM E-score” value: -0.118 for the first, -0.0394 for the second.

Going from GGGAAGTA to GGTCCTAA, the “PBM E-score” value rises from -0.0216 to 0.18.

First: TCCCCGAA
Second: ACGATTCC
The “PBM E-score” value of the first is higher: -0.00114 for the first, -0.012 for the second.

First: ATGGTGTC
Second: ATGGTATC
The “PBM E-score” value of the first is higher: 0.162 for the first, -0.00837 for the second.

First: GTTATTGA
Second: CAATGGGA
The “PBM E-score” value of the first is higher: 0.0396 for the first, 0.0129 for the second.

Compared with GGATCTGA, ACCCTGAC is lower in “PBM E-score” value: 0.021 for the first, -0.0428 for the second.

Compared with ATTCGTCA, AGTATCTA is higher in “PBM E-score” value: 0.0623 for the first, 0.197 for the second.

First: AGTGTGCG
Second: CCTTAGGC
The “PBM E-score” value of the first is higher: -0.0823 for the first, -0.252 for the second.

First: CGGCGATC
Second: CCGGCAGA
The “PBM E-score” value of the first is higher: 0.0124 for the first, -0.00566 for the second.

Going from GCGCCGGA to CGGCCCCA, the “PBM E-score” value falls from -0.00906 to -0.326.

Compared with ATCGAGCC, GCTTAACA is higher in “PBM E-score” value: -0.0197 for the first, 0.00132 for the second.

Going from TGAAGGCA to CATGCATA, the “PBM E-score” value rises from -0.0775 to -0.0364.

Going from TCGGTGCA to CTCACATA, the “PBM E-score” value falls from 0.0189 to -0.0194.

Compared with TAGTGGAA, AGAGACAG is higher in “PBM E-score” value: -0.0712 for the first, 0.0165 for the second.

Compared with AGATTAGC, GTGCAGAA is higher in “PBM E-score” value: -0.0505 for the first, -0.0299 for the second.

First: ATTTGGAA
Second: TAATTCCA
The “PBM E-score” value of the first is lower: -0.0497 for the first, 0.119 for the second.

First: CTAGGATC
Second: ATAGGGTA
The “PBM E-score” value of the first is higher: -0.0192 for the first, -0.0611 for the second.

Going from GAGTCCTA to CTTGCGAC, the “PBM E-score” value falls from 0.0172 to -0.0181.

Going from AAGGTCAA to AACTCCAC, the “PBM E-score” value falls from -0.0743 to -0.0751.

Compared with GCAGAGCA, ACGCTTAT is higher in “PBM E-score” value: -0.271 for the first, -0.182 for the second.

Compared with GACCAGGC, AAGTACTC is higher in “PBM E-score” value: -0.263 for the first, 0.0584 for the second.

First: CAATAGTA
Second: GTTGTCCA
The “PBM E-score” value of the first is lower: 0.0551 for the first, 0.381 for the second.

First: GTTCGTAA
Second: AAATCCAG
The “PBM E-score” value of the first is lower: -0.00089 for the first, 0.0557 for the second.

Compared with AGAATGAT, CTTTAGTA is lower in “PBM E-score” value: 0.124 for the first, 0.0225 for the second.

Compared with AGCTGTGA, ATCCGGGG is lower in “PBM E-score” value: 0.0457 for the first, -0.1 for the second.

Going from AATTAACA to TGGCGACA, the “PBM E-score” value rises from 0.0468 to 0.145.

Compared with TAAAACTA, AGAAGTTC is lower in “PBM E-score” value: 0.106 for the first, -0.177 for the second.

Compared with CTATACGC, CTGCTTCC is lower in “PBM E-score” value: -0.0146 for the first, -0.229 for the second.

Compared with AGCCTGGG, CAACCTAG is higher in “PBM E-score” value: -0.109 for the first, -0.0247 for the second.

Compared with AATGCTCC, CAGTCCCA is lower in “PBM E-score” value: -0.0775 for the first, -0.113 for the second.

First: ATAATGGC
Second: GTCGAAAA
The “PBM E-score” value of the first is lower: -0.0691 for the first, 0.0756 for the second.

First: ACAACTCC
Second: GCGACTAC
The “PBM E-score” value of the first is higher: 0.021 for the first, -0.0798 for the second.

First: ACTGGCTG
Second: CCATGCAA
The “PBM E-score” value of the first is lower: -0.232 for the first, 0.118 for the second.

Going from AAAGCATT to CGATCTAA, the “PBM E-score” value rises from 0.0712 to 0.109.

Compared with GGGGGACC, AACCCAGT is higher in “PBM E-score” value: -0.442 for the first, -0.0862 for the second.

First: CACTGCCA
Second: AAGGTGTA
The “PBM E-score” value of the first is lower: -0.00668 for the first, 0.0651 for the second.

First: CAATGGTC
Second: CAAATCCG
The “PBM E-score” value of the first is lower: 0.112 for the first, 0.176 for the second.

First: CACAACAG
Second: CTTGGTCC
The “PBM E-score” value of the first is lower: -0.113 for the first, 0.064 for the second.

First: AGAATACG
Second: AAGGGAAG
The “PBM E-score” value of the first is lower: -0.0196 for the first, -0.0141 for the second.

First: CAGCAGGA
Second: AACCGGGA
The “PBM E-score” value of the first is lower: -0.216 for the first, 0.0147 for the second.

Compared with GAACACAC, TCAGTGCA is higher in “PBM E-score” value: -0.137 for the first, -0.1 for the second.

Compared with AAAGGTTC, AGATTTTC is higher in “PBM E-score” value: -0.134 for the first, 0.0741 for the second.

Compared with CGTCAGAC, CACGGCAG is lower in “PBM E-score” value: 0.0686 for the first, 0.0331 for the second.

First: AACGGCGC
Second: CGTCCGAA
The “PBM E-score” value of the first is lower: -0.0284 for the first, 0.222 for the second.

Going from GTCTTTTA to AACGTAAA, the “PBM E-score” value falls from 0.0918 to 0.0642.

Going from ATAGGTCC to ATGATGTG, the “PBM E-score” value falls from 0.12 to -0.00297.

Going from AACCCTAA to AGCCCCTG, the “PBM E-score” value falls from 0.0238 to -0.42.

Going from ATAGAAGG to GCAAGTGC, the “PBM E-score” value falls from -0.0499 to -0.203.

First: CTGCGCTC
Second: AGTGCCCG
The “PBM E-score” value of the first is lower: -0.19 for the first, 0.0217 for the second.

Going from ACGCGTCT to GACGTCAA, the “PBM E-score” value falls from 0.00594 to -0.00044.

Compared with GCACGGGC, ATCTTTTA is higher in “PBM E-score” value: -0.351 for the first, 0.0434 for the second.

Compared with CTGAATGA, AAAGCCGT is lower in “PBM E-score” value: 0.052 for the first, -0.068 for the second.

Going from CTAGGAAC to CTACAGCC, the “PBM E-score” value falls from -0.138 to -0.162.

First: AAAACTGC
Second: ACGGTCGA
The “PBM E-score” value of the first is lower: -0.0241 for the first, -0.0095 for the second.

Going from CGCATGCG to AACCGTTG, the “PBM E-score” value rises from -0.0158 to 0.12.

First: CGTGGACA
Second: ACAGGGCC
The “PBM E-score” value of the first is higher: 0.408 for the first, -0.0844 for the second.

First: CATGCCCA
Second: ACGAAAGG
The “PBM E-score” value of the first is lower: -0.09 for the first, 0.113 for the second.

Going from CCCTAATC to GCGGCCGC, the “PBM E-score” value rises from -0.298 to -0.207.

Going from ACACTCAT to ACGAAGTC, the “PBM E-score” value falls from 0.0832 to 0.0318.

Compared with AGCGTGTG, CAACGACG is higher in “PBM E-score” value: -0.162 for the first, -0.0172 for the second.

Going from ATAAACGA to ATCTTGGA, the “PBM E-score” value falls from 0.257 to -0.0269.

Going from ACTCTAGA to CGAGACAC, the “PBM E-score” value rises from -0.0148 to 0.183.

Compared with AGGCCAAC, GTTGTTTA is higher in “PBM E-score” value: -0.129 for the first, 0.17 for the second.
